From PubChem BioAssay AID1259400 (National Center for Advancing Translational Sciences (NCATS), 2018)
Where “and” joins values, the source holds several entries; their conditions need not be identical. Equal entries are not always repeated. Out of some 350,000 compounds screened, about 2,100 (0.6%) were called active. Inconclusive results, whose numbers are uncertain, are shown with a selection of clear calls.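 Rule for the calls: active = activity change of -60% or lower, but not beyond a set lower limit; inconclusive = change between -60% and -40%, or beyond the set limit; inactive = change above -40%.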

These compounds were tested against Relaxin receptor 1 (Homo sapiens) (UniProt Q9HBX9) (assay: qHTS Assay for Antagonists of the Relaxin Receptor RXFP1). Details: HEK293-RXFP1, relaxin-stimulated cAMP HTRF, 30 min; at 57.5 µM; stronger effect = lower value.
% is set by controls: 0 for no effect and ±100 for the full control effect.

Sequence of UniProt Q9HBX9 (Q9HBX9 whole entry, looked up): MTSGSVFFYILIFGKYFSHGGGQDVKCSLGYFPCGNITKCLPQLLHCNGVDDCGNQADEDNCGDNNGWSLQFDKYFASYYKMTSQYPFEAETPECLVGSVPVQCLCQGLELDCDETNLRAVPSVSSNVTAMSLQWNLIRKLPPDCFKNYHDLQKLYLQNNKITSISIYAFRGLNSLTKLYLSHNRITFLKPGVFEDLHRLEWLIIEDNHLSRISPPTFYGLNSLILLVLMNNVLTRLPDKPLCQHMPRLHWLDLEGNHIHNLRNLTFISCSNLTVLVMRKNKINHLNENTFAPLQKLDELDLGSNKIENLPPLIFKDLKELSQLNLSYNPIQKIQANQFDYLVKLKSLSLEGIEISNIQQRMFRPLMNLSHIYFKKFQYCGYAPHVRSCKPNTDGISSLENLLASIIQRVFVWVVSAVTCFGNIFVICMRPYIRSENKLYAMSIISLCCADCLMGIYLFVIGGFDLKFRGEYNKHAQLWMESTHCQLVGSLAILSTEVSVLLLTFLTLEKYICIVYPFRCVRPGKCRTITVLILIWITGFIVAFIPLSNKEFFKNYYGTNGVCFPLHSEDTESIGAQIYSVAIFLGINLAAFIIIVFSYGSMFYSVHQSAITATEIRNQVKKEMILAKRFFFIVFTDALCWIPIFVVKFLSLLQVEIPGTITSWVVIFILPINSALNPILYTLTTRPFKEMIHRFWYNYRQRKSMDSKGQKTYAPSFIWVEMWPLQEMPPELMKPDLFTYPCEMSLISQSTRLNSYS

SMILES	activity change, negative = inhibition
O=C(CSc1ccc(Cl)cc1)NC(=O)NC1CCCC1	inactive: -3.62%
CC(=O)Oc1cccc(/C=C2\Sc3ccccc3C2=O)c1	inconclusive: -55.8%
O=C1OC(c2ccc3ccccc3c2O)(c2ccc3ccccc3c2O)c2ccccc21	inconclusive: -48.3%
CC(=O)N1CCOc2ccc(S(=O)(=O)NCCc3ccc(Cl)cc3)cc21	active: -67.6%
Cc1ccc(-c2nc(N)sc2-c2ccccc2)cc1C	active: -83.8%
CCCCc1oc2ccc(NS(C)(=O)=O)cc2c1C(=O)c1ccc(OCCCN(CCCC)CCCC)cc1	inconclusive: -47.8%
O=S(=O)(c1ccc(Br)c2nsnc12)N1CCOCC1	inconclusive: -43.5%
COC(=O)c1sc(-c2cccs2)cc1N	inconclusive: -41.9%
COCCNC(=O)c1ccccc1NC(=O)c1ccccc1N(C)S(=O)(=O)c1ccc(C)cc1	inactive: -7.2%
C/C(=N/N=C/c1ccc(N(C)C)cc1)c1ccccc1	inactive: 17.1%
COc1ccc(N2CCN(C(=O)CCCCCn3c(=S)[nH]c4ccc(N5CCOCC5)cc4c3=O)CC2)cc1	active: -98.4%
COc1ccccc1NC(=O)CSc1ccc(-c2ccc(-n3ccnc3)cc2)nn1	inconclusive: -40.7%
Cc1c(NC(=O)c2ccccc2)cc(C(C)C)c(O)c1S(=O)(=O)c1ccc(Cl)cc1	inconclusive: -53.5%
OCCN1CCN(CC(O)COc2ccc3ccccc3c2)CC1 (stereo not given)	inconclusive: -59.9%
O=C(CCCCn1c(=S)[nH]c2ccsc2c1=O)NCc1ccco1	active: -81.1%
O=[N+]([O-])c1ccc(N2CCN(C(=S)Nc3ccc(F)cc3F)CC2)cc1	inconclusive: -49.5%
CCOC(=O)C1CCN(C(=O)c2cc3cc(C)ccc3[nH]2)CC1	inactive: 1.23%
CCCCN(CC)CCNC(=O)c1cc2c(-c3ccc(Cl)cc3)nn(C)c2s1	inconclusive: -48.4% and active: -104%
Cc1ccc(NC(=O)c2ccccc2-c2ccccc2C(=O)O)cc1	inactive: -1.5%
Cn1nccc1C(=O)NCc1ccc2c(c1)CCN2C(=O)c1ccc(F)cc1	active: -73.4%
O=C1OCCC1S(=O)(=O)c1ccc2ccccc2c1 (stereo not given)	inactive: 19.6%
O=C(/C=C/C(Cl)(Cl)Cl)Nc1ccc(Cl)cc1	active: -72.6%
O=C(Nc1ccc(Nc2ccccc2)cc1)c1ccco1	active: -80.5%
O=C(c1cc(Cl)nc2ccccc12)N1CCN(S(=O)(=O)c2cccc(C(F)(F)F)c2)CC1	active: -77.2%
COc1ccccc1N(C(C)=O)C1=C(Cl)C(=O)c2ccccc2C1=O	active: -86.6%
